Among all 310,000 compounds or so, about 2,200 (0.71%) showed an effect of 50% or more. The effect is printed as a negative number. Some of the results follow.
Each compound was assayed against human ether-à-go-go-related gene (hERG) potassium channel (human, UniProt Q12809) (assay: primary screen, population patch clamp on CHO cells stably expressing hERG).
human ether-à-go-go-related gene (hERG) potassium channel, sequence (Q12809 whole entry, looked up): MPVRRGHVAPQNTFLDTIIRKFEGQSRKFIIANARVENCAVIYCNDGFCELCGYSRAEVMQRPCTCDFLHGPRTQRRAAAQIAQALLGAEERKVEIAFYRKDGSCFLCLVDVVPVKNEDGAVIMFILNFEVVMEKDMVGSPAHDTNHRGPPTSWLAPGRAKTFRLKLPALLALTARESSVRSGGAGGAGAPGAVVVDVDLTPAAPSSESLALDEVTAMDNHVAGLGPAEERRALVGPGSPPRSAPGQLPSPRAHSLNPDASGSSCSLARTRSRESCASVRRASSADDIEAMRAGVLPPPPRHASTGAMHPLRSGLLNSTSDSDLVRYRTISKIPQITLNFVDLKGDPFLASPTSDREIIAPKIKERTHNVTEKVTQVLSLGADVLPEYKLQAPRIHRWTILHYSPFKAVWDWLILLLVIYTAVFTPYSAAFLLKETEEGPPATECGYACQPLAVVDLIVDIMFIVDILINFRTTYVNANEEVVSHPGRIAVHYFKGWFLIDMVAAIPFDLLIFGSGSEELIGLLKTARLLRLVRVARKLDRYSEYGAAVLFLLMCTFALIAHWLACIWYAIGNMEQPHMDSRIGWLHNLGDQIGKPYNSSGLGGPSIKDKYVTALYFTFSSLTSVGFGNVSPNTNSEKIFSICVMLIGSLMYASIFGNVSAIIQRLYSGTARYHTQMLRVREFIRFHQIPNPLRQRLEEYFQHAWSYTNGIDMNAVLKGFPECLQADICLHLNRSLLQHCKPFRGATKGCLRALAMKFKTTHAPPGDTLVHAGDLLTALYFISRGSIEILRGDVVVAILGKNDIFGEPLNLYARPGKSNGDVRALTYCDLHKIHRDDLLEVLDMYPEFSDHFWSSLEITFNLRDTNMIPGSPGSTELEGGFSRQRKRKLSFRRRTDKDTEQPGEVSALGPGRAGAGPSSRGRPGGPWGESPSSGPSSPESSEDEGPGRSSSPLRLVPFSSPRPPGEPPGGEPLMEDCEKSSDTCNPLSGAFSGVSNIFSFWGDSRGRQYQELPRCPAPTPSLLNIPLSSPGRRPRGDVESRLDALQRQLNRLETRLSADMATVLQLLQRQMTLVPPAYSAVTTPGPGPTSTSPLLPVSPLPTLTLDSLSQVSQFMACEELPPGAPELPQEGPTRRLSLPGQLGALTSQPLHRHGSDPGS

Row | Structure (SMILES) | hERG current change (%, negative = inhibition) at 1uM
1 | CC1(C)CC(=O)C(CC2CCCCC2=O)C(=O)C1 (stereo not shown) | 12.2%
2 | CC(C)NC(=O)CC1C(=O)N(Cc2ccccc2)C(C)c2nc3ccccc3n21 (stereo not shown) | 7.98%
3 | Cc1ccc(-n2nnnc2SCC(=O)NNC(=O)c2ccco2)c(C)c1 | 7.1%
4 | Cc1[nH]c(=O)[nH]c(=O)c1S(=O)(=O)N1CCCC(C(=O)NCc2ccccc2Cl)C1 (stereo not shown) | -1.28%
5 | O=C(NCCc1nnc2ccc(NCCCN3CCOCC3)nn12)c1ccccc1F | 13.1%
6 | Cc1cc(NCCN2CCOCC2)c2ccc3ccccc3c2n1 | -58.3%
7 | O=C(COC(=O)CSc1ccc([N+](=O)[O-])cc1)NCCc1ccccc1 | 3.2%
8 | CC1(C)CC(=O)C2=C(C1)N(c1ccccc1C#N)C(N)=C(C#N)C2c1cccs1 (stereo not shown) | 3.1%
9 | CCO/N=C(/C)c1c(O)cc(C(C)(C)C)n(-c2ccccc2)c1=O | 1.63%
10 | COc1ccc2[nH]c3nc(SCC(=O)Nc4ccc5c(c4)OCO5)nnc3c2c1 | 7.59%
11 | CCCCN(CCCC)C(=O)c1nsnc1-c1ccccc1O | 3.8%
12 | COc1ccc(NC(=O)Nc2ccc3c(c2)OCO3)c(C)c1 | 12.3%
13 | O=C(CCCn1c(SCC(=O)NCC2CCCO2)nc2ccccc2c1=O)NCc1ccccc1 (stereo not shown) | 0.686%
14 | N#Cc1ccc(CN2CCN(C(=O)c3cn(Cc4ccccc4)nc3-c3cccnc3)CC2)cc1 | -30%
15 | CSc1nsc(SCc2cnc(C)nc2N)n1 | 9.96%
16 | COc1ccc(OC)c(S(N)(=O)=O)c1 | 17.8%
17 | CCc1nc(C#N)c(N2CCOCC2)o1 | 6.34%
18 | Cc1cc(C)c2c(=O)n(CC(=O)N3CCC(N4CCCCC4)CC3)sc2n1 | -1.96%
19 | COc1ccc(CNC(=O)c2cc(C3CC3)nc3c2cnn3C(C)C)cc1 | 13.2%
20 | O=C(NC1CCOC1)c1cc(COc2cccc(C(F)(F)F)c2)on1 (stereo not shown) | 15.1%
21 | Cc1c(NC(=O)c2cnn3c(C(F)(F)F)cc(-c4ccco4)nc23)c(=O)n(-c2ccccc2)n1C | 7.06%
22 | O=C(N/N=C/c1ccc([N+](=O)[O-])cc1)c1cccc(N2CCCC2=O)c1 | 5.84%

Row | Structure (SMILES) | hERG current change (%, negative = inhibition) at 1uM
23 | O=c1oc(-c2ccccc2NS(=O)(=O)c2ccc(Cl)cc2)nc2ccccc12 | 14.3%
24 | CCc1c(C)sc(NC(=O)/C=C/c2ccc3c(c2)OCO3)c1C(=O)OC | 10.9%
25 | Cc1c(C(=O)N2CCN(c3ncccn3)CC2)oc2c(Cl)cccc12 | -5.4%
26 | Cc1cc(S(=O)(=O)NCCN2CCOCC2)ccc1Cl | 14.5%
27 | CC(=O)c1ccc(OC(=O)c2ccc(-n3nc(C)cc3C)cc2)cc1 | 5.1%
28 | Cc1ccccc1NC(=O)NC(C)(C)CC(C)(C)C | 14.1%
29 | COc1cc(CN2CCC(CO)(CCOc3ccccc3)CC2)cc(OC)c1 | -8.26%
30 | NC(=O)c1ccc(N=Nc2c(O)[nH]c(=O)[nH]c2=O)cc1 | 2.48%
31 | CCC(C)NC(=O)CSc1nnc(-c2c[nH]c3ccccc23)o1 (stereo not shown) | 6.83%
32 | Cc1ccc2[nH]c(C)c(/C=C/c3cc[n+](C)cc3)c2c1.[I-] | 15.8%
33 | Nc1nnc(SCC(=O)OCC(=O)Nc2ccccc2F)s1 | 3.47%
34 | COC(=O)c1ccc2c(=O)n(CCN3CCOCC3)c(SCC(=O)NCc3ccccc3)nc2c1 | -0.617%
35 | Cc1cc(NCCN2CCOCC2)n2ncc(-c3ccccc3)c2n1 | 4.56%
36 | COc1ccc(Cn2nnnc2C(c2ccccc2Cl)N2CCC(C(N)=O)CC2)cc1 (stereo not shown) | 8.14%
37 | Cc1cc(=O)[nH]c2c1c(C)nn2C(C)(C)C | 10.5%
38 | C#CC(CC)(CC)NC(=O)Nc1ccccc1C(=O)OC | 9.34%
39 | CC(=O)N1c2ccc(S(=O)(=O)NCC3CCC(C(=O)N(C)Cc4ccccc4)CC3)cc2CC1C (stereo not shown) | 10.8%
40 | COc1ccc(-c2nc(SCC(=O)Nc3c(F)cccc3F)n[nH]2)cc1 | -1.88%
41 | O=C(Nc1ccccc1N1CCCCC1)c1cccs1 | -14.7%
42 | COc1ccc(C2=NN(C(=O)CCCC(=O)O)C(c3cccs3)C2)cc1OC (stereo not shown) | 16.5%
43 | COc1c2ccoc2nc2c(OC)c(OCC(O)C(C)(C)O)ccc12 (stereo not shown) | 20.9%
44 | Cc1cccc(CCNC(=O)CCS(=O)(=O)c2ccc3nc(C)sc3c2)c1 | 6.03%

Row | Structure (SMILES) | hERG current change (%, negative = inhibition) at 1uM
45 | Cc1nn(CCC(=O)NNC(=S)Nc2ccc(Cl)cc2)c(C)c1[N+](=O)[O-] | 14.9%
46 | CC1CCCN(CCCNC(=O)C2CCN(S(=O)(=O)N3CCC4(CC3)OCCO4)CC2)C1 (stereo not shown) | 13.2%
47 | Cc1ccc(C(=O)Cc2nnc(C)s2)cc1 | 1.24%
48 | CCOC(=O)C1=C(CS(=O)(=O)c2ccc(Cl)cc2)NC(=O)NC1c1ccc(O)c(OC)c1 (stereo not shown) | 9.27%
49 | CC(C)c1c(C(=O)N/N=C/c2ccc(C(F)(F)F)cc2)nnn1-c1nonc1N | -0.403%
50 | CCn1c(=N)n(CC(O)c2ccco2)c2ccccc21.Cl (stereo not shown) | -7.63%
51 | Cc1ccc(NC(=O)CCC(=O)NNC(=O)COc2ccc([N+](=O)[O-])cc2)cc1C | 2.42%
52 | CCN1C(=O)C2(C(C#N)=C(N)Oc3n[nH]c(-c4ccc(Cl)cc4)c32)c2ccccc21 (stereo not shown) | 12%
53 | CCOC(=O)c1nc(N)c(C(=O)OCC)[nH]1 | 13.9%
54 | O=C(Nc1cccc(-c2ccc3nncn3n2)c1)C(F)(F)F | 7.84%
55 | COC(=O)CN1C(=O)COc2ccc(S(=O)(=O)NCc3ccc(F)cc3)cc21 | -0.703%
56 | COc1ccc(CNC(=O)CSc2nnc(C)n2-c2ccc(F)cc2)cc1 | -2.52%
57 | COc1cccc(CNS(=O)(=O)c2cn(C)cn2)c1 | 10.1%
58 | COC(=O)C(Cc1c[nH]c2ccccc12)NC(=O)c1cc(-c2ccc(OC)c(OC)c2)oc1C (stereo not shown) | 7.15%
59 | COc1cc(C(=O)NNC(=O)COc2cccc(F)c2)ccc1OCC(=O)N1CCOCC1 | 5.92%
60 | CCC(=O)Nc1ccc2nn(-c3ccc(F)cc3)nc2c1 | 12%
61 | COc1ccc(-c2nnc(SCC(=O)Nc3ccccc3)n2C)cc1 | 5.24%
62 | O=C(NC(Cc1ccccc1)C(=O)O)/C(=C/c1ccccc1)NC(=O)c1ccc(Br)o1 (stereo not shown) | 15.2%
63 | CCn1cc(C(=O)NN)c(=O)c2cc(F)c(N3CCN(C)CC3)cc21 | 16.1%
64 | O=C(CN1C(=O)C2CC=CCC2C1=O)OCc1cc(=O)n2cc(Br)ccc2n1 (stereo not shown) | -6.54%
65 | CCOC(=O)c1c(C)c(C(=O)Nc2ccc3c(c2)OCCO3)c(C)n1CC | 15.6%
66 | Cc1ccc(S(=O)(=O)N2CCC(C(=O)OCC(=O)N(Cc3ccccc3)C(C)(C)C)CC2)cc1C | 2.42%

Row | Structure (SMILES) | hERG current change (%, negative = inhibition) at 1uM
67 | CCCCN=C1CC(C)(C)CC(=O)/C1=C(/O)CCC | 8.96%
68 | O=C1CCc2ccccc2N1 | 16.3%
69 | COCCn1c(SCC(=O)NC(=O)NC2CCCC2)nc2ccccc2c1=O | 1.9%
70 | O=C1CCN(CCc2ccccc2)CCN1[C@H](COc1ccccc1)c1ccccc1 | -82.8%
71 | CCOc1ccc(CC(=O)Nc2nccs2)cc1OCC | -0.677%
72 | O=C(NCc1ccccc1)C(c1ccc(F)cc1)N(C(=O)c1csnn1)C1CC1 (stereo not shown) | 7.98%
73 | CCn1c(SCC(=O)Nc2ccc(OC)cc2)nc2c1c(=O)n(C)c(=O)n2C | 3.11%
74 | Cc1ccc(C)c(NC(=O)CN(C)C(=O)c2ccccc2Cc2ccccc2)c1 | -10.8%
75 | O=C(NCc1n[nH]c(=S)n1Cc1ccccc1)c1ccccc1 | 3.18%
76 | COCCN(Cc1ccc(F)cc1)C(=O)c1cc2ccccc2oc1=O | 10.2%
77 | CCCCc1nnc(SC(C)C(=O)Nc2nccs2)n1C (stereo not shown) | 12%
78 | CCOc1cc(NC(=O)c2ccccc2[N+](=O)[O-])c(OCC)cc1NC(=O)CC(C)C | 12.5%
79 | CC1CN(C(=O)CCC(=O)NCc2ccccn2)c2ccccc2O1 (stereo not shown) | 12.4%
80 | CC1(C)CNC(=O)CC(C)(C)N1 | -0.397%
81 | CCN(CC)CCCCNc1ncc2cc(-c3cc(OC)cc(OC)c3)c(NC(=O)NC(C)(C)C)nc2n1 | 1.26%
82 | COc1ccc(C(=O)NCC2(c3ccccc3)CCOCC2)cc1 | 13.5%
83 | COc1ccccc1OCCn1cc(C(=O)C(C)C)c2ccccc21 | 12.4%
84 | CC(OC(=O)c1nn(C(C)C)c(=O)c2ccccc12)C(=O)Nc1ncc(Cl)cc1Cl (stereo not shown) | 16.9%
85 | Oc1[nH]c2ccccc2c1N=Nc1nc(Nc2ccccc2)nc(N2CCOCC2)n1 | -2.39%
86 | COc1ccc(OCC(=O)NNC(=S)NC(=O)c2ccc([N+](=O)[O-])cc2)cc1 | 9.67%
87 | NC(=O)c1cc(C(=O)Cc2ccc(Cl)cc2)c[nH]1 | 13.6%
88 | O=C(CSc1nc2c(cnn2-c2ccccc2)c(=O)[nH]1)NC1CCS(=O)(=O)C1 (stereo not shown) | 14.8%
